Laboratory results published in PubChem BioAssay AID1476 (National Center for Advancing Translational Sciences (NCATS), 2009).
Out of some 200,000 compounds screened, about 4,500 (2.2%) were called active. This list was built around the results that the source calls inconclusive (neither active nor inactive); the mix of calls is not that of the screen. Calls follow the shape of the dose curve; as a rule, active = well fitted inhibition curve with a large enough effect; inconclusive = small, poorly fitted or top-dose-only effect, or effect the other way; inactive = flat fitted curve, though single readings scatter. Potencies of inconclusive entries are doubtful fits and often do not repeat.

Molecular target: Cruzipain (Trypanosoma cruzi) (UniProt P25779)
Assay: qHTS Assay for Promiscuous and Specific Inhibitors of Cruzain (without detergent); also: nearly all actives have a fitted effect of over 40% in size;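 as to max response, negative = inhibition: plate controls were enzyme without inhibitor for no effect and buffer without enzyme for full effect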
Conditions: purified cruzain, Z-FR-AMC fluorescence, no detergent
Method in brief: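 Purified cruzain at 1.5 nM, pre-incubated 15 min with compound at room temperature in 100 mM sodium acetate pH 5.5, 5 mM DTT, 0.00005% Triton X-100. Reaction started with 2 uM Z-FR-AMC; AMC fluorescence increase over 60 s gives rate.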
Potency is read from the fitted curve at half-maximal effect; tags tell the direction and shape of the fitted curve.

Chain of UniProt P25779 (P25779 whole entry, looked up): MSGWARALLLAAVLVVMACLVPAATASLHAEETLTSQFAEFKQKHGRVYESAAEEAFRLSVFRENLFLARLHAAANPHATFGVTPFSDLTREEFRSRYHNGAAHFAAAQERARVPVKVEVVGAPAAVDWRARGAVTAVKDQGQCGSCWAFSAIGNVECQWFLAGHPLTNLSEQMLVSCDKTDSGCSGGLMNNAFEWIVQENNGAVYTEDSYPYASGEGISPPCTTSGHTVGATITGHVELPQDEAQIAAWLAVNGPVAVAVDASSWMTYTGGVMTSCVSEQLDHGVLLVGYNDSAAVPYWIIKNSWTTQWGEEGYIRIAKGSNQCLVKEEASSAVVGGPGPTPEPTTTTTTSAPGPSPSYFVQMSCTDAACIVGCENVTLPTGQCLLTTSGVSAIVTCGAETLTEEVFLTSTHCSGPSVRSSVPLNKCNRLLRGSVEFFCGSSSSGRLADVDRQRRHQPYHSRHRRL

Structure (SMILES)	Potency	max response, negative = inhibition
COc1ccc(N(CC(=O)Nc2ccc(S(=O)(=O)N3CCCC3)cc2)S(C)(=O)=O)cc1OC	inconclusive: 39.8 µM [activator, single point]	
CCOc1nc(-c2ccc(OC)cc2)ccc1-c1noc(C)n1	inconclusive: 39.8 µM [activator, single point]	
CC(=O)c1cccc(NC(=O)CCS(=O)(=O)c2cc(Br)cc3c2N(C(=O)C2CC2)CC3)c1		inactive: 5.04%
CC(=O)n1c2ccccc2c2c1c1ccccc1n2C	inconclusive: 31.6 µM [inhibitor, single point]	
CC(C)COP(=O)(c1ccc(N(C)C)cc1)C(Nc1ccccc1)c1ccccc1 (stereo unspecified)		inactive: 7.54%
Cc1ccccc1OCC(=O)NC(=S)Nc1ccc(N2CCOCC2)c(Cl)c1	inconclusive: 31.6 µM [inhibitor, single point]	
CCOC(=O)N1CCN(C(=O)CCn2nc(-c3ccc(Cl)cc3)ccc2=O)CC1	inconclusive: 31.6 µM [activator, single point]	
COc1ccc(OC)c(C2CC(=O)c3c([nH]c(C(=O)OCC4CCCCC4)c3C)C2)c1 (stereo unspecified)		inactive: -15%
O=C(N/N=C/c1ccc(Br)s1)c1cccc([N+](=O)[O-])c1	active: 20 µM	
CCSc1ccc(-c2nn(-c3ccccc3)cc2/C=C(/C#N)C(=O)NC)cc1	inconclusive: 25.1 µM [inhibitor, partial curve, poor fit]	
O=S(=O)(Nc1cccc(-c2ccc(N3CCCCC3)nn2)c1)c1cccs1	inconclusive: 39.8 µM [inhibitor, single point]	
N=c1oc2ccccc2cc1-c1nc(-c2ccccc2)cs1	inconclusive: 39.8 µM [inhibitor, single point]	
O=C(Nc1cc2c3c(c1)C1CCCC1CN3CC1CCCC21)c1ccccc1 (stereo unspecified)	inconclusive: 39.8 µM [inhibitor, single point]	
COc1ccccc1NC(=O)n1ncc2c(C)cccc21	inconclusive: 31.6 µM [activator, single point]	
COc1cccc(NC(=O)c2cc([N+](=O)[O-])ccc2NCc2cccnc2)c1	inconclusive: 39.8 µM [inhibitor, single point]	
CN1CCN(C(c2ccccc2)c2sc3nc(-c4ccco4)nn3c2O)CC1 (stereo unspecified)		inactive: -3.39%
O=C(C(Cc1ccccc1)N1C(=O)c2ccccc2C1=O)N1CCc2ccccc21 (stereo unspecified)		inactive: -12.8%
Cc1ccc(S(=O)(=O)c2nc(NCc3ccc4c(c3)OCO4)sc2Cl)cc1	inconclusive: 39.8 µM [inhibitor, single point]	
C/[N+]([O-])=C1\Cc2ccccc2C1=O		inactive: -0.601%
Cc1ccc(C(C(=O)NC(C)(C)C)N(CC2CCCO2)C(=O)Cn2nnc(-c3ccc(C)o3)n2)cc1 (stereo unspecified)	inconclusive: 25.1 µM [activator, single point]	
COc1ccccc1N1N=C(c2cccs2)CC1c1ccccc1 (stereo unspecified)	inconclusive: 12.6 µM [inhibitor, single point]	
CCC(=O)Nc1ccc(C(=O)Nc2ccc3c(c2)C(=O)N(CC2CCCO2)C3=O)cc1 (stereo unspecified)	inconclusive: 15.8 µM [activator, partial curve]	

Structure (SMILES)	Potency	max response, negative = inhibition
O=c1c2ccccc2nc(COc2ccccc2)n1/N=C/c1cc([N+](=O)[O-])ccc1O	inconclusive: 39.8 µM [inhibitor, single point]	
C/C(=N/NC(N)=S)c1ccccc1[N+](=O)[O-]	active: 12.6 µM	
COC(=O)c1ccc(C(NC(=O)OCc2ccccc2)/C(F)=C/[C@@H](C)C(=O)NCc2ccc(-c3ccccc3)cc2)cc1 (stereo partly specified)	active: 10 µM	
Cc1nc(N/N=C/c2ccccc2)nc(N(C)c2ccccc2)c1[N+](=O)[O-]	active: 15.8 µM	
CC(=O)OC1C[C@]2(C)[C@@H](CC(O)C3[C@]4(C)CCC(O)C(C)[C@@H]4CC[C@]32C)/C1=C(/CCC=C(C)C)C(=O)O (stereo partly specified)	inconclusive: 10 µM [activator, partial curve]	
COc1ccc(-c2cc(C(F)(F)F)nc(SCC(=O)N3CCOCC3)n2)cc1OC	inconclusive: 31.6 µM [activator, partial curve]	
COc1ccc(-c2oc3ccc(C)cc3c(=O)c2O)cc1OC		inactive: 6.71%
COc1cc(/C=C(\C#N)C(=O)c2c(C)[nH]c3ccccc23)cc(OC)c1OC	inconclusive: 31.6 µM [activator, single point]	
Cc1cc(C)c(Cn2c(C)c(CNCCCc3ccccc3)c(C(=O)O)c2C)c(C)c1		inactive: 9.87%
CC(=O)c1sc2c(c1C)c(=O)n(-c1ccc(Cl)cc1)c(=O)n2Cc1ccc(Cl)cc1	inconclusive: 3.98 µM [inhibitor, full curve]	
COc1ccc(Cl)cc1NS(=O)(=O)c1cc(-c2cc(C)no2)ccc1C		inactive: -0.328%
Cc1ccc(C(=O)NCC(=O)OCC(=O)c2ccc3c(c2)OCCO3)cc1C	active: 12.6 µM	
CCOC(=O)c1ccc(NC(=O)C2Cc3ccccc3CN2S(=O)(=O)c2ccc(Cl)cc2)cc1 (stereo unspecified)		inactive: -21.4%
CC(NC(=O)Cn1ncc2c3ccccc3n(Cc3ccc(F)cc3)c2c1=O)c1ccccc1 (stereo unspecified)		inactive: -15.7%
CCn1c(SCC(=O)Nc2ccc(S(=O)(=O)Nc3onc(C)c3C)cc2)nnc1-c1ccccc1	inconclusive: 39.8 µM [activator, single point]	
CCOc1ccccc1CNC(=O)c1cccc(NC(=O)c2nsc3ccccc23)c1	inconclusive: 39.8 µM [inhibitor, single point]	
Cc1ccc(-c2[nH]c3ccccc3c2C(C[N+](=O)[O-])c2ccco2)cc1 (stereo unspecified)	inconclusive: 39.8 µM [inhibitor, single point]	
O=C1c2ccccc2C(Nc2ccc3c(c2)OCCO3)N1c1ccc(Cl)cn1 (stereo unspecified)	inconclusive: 25.1 µM [inhibitor, single point]	
Cn1cc(/C=N/n2cnc3sc4c(c3c2=O)CCCC4)c2ccccc21	inconclusive: 39.8 µM [inhibitor, single point]	
O=C(Cn1c(SCc2cccc(F)c2)nc2ccncc21)Nc1ccc(Cl)cc1F		inactive: 7.15%
COc1ccc(-c2ccc(-c3nnc(-c4cc(OC)ccc4OC)o3)cc2)cc1	active: 25.1 µM	
Clc1ccc(-c2nnc(-c3ccc(Br)cc3)c(N3CCSCC3)n2)cc1	active: 20 µM	

Structure (SMILES)	Potency	max response, negative = inhibition
CCCCCOc1ccc2oc(=O)c3c(c2c1)CCCN3C(=O)CN1CCCC(C(=O)OCC)C1 (stereo unspecified)	inconclusive: 25.1 µM [activator, single point]	
CC1(C)C(=O)C(c2ccccc2)=C2CN3C(=O)N(CCc4ccccc4)C(=O)C3(Cc3ccc(F)cc3)C=C21 (stereo unspecified)	inconclusive: 39.8 µM [inhibitor, single point]	
Cc1ccc(Nc2nnc(SCn3nnc4ccccc4c3=O)s2)cc1	inconclusive: 39.8 µM [inhibitor, single point]	
COc1ccc2cc3c(N)nn(C(=O)C4CCC(C(C)(C)C)CC4)c3nc2c1 (stereo unspecified)	inconclusive: 39.8 µM [inhibitor, single point]	
Cc1ccc(C(=O)Nc2nnc(SCc3cc(=O)n4ccc(C)cc4n3)s2)cc1		inactive: -1.78%
Cc1cc(C)cc(C(=O)Nc2c3c(nn2-c2ccccc2C)CS(=O)(=O)C3)c1		inactive: -11.5%
CCSc1nnc(NC(=O)c2ccc(C)cc2)s1	active: 0.631 µM	
Cc1ccc(Cl)cc1N1CCN(C(=O)Cn2nc(C)n3c(cc4sccc43)c2=O)CC1		inactive: -6.63%
Cc1nc(SCC(=O)N2CCN(c3ccccc3)CC2)c2oc3ccccc3c2n1	inconclusive: 39.8 µM [activator, single point]	
CCCN(C(=O)CCn1cnc2onc(-c3ccc(F)cc3)c2c1=O)c1ccccc1C	inconclusive: 39.8 µM [activator, single point]	
CCOC(=O)c1c(N)sc2c1CCSC2	inconclusive: 31.6 µM [inhibitor, single point]	
Cc1nc(NC(=O)c2ccc(Cl)cc2)sc1-c1csc(Nc2cccc(F)c2)n1	active: 10 µM	
COc1cc(-c2nnc(SCC(=O)N3CCCc4ccccc43)o2)cc(OC)c1OC	inconclusive: 39.8 µM [activator, single point]	
COc1ccc(-c2[nH]ncc2/C=N\NC(=O)c2ccc(C(C)(C)C)cc2)cc1OC	inconclusive: 31.6 µM [activator, single point]	
O=C(NCc1ccccc1Br)c1ccc(-n2cnc3cccnc32)cc1		inactive: 2.61%
CCOc1ccccc1NC(=O)C1CCCN(S(=O)(=O)c2ccc3c(c2)CCCN3C(C)=O)C1 (stereo unspecified)	inconclusive: 39.8 µM [activator, single point]	
CN(C(=O)COc1ccc(Cl)cc1Cl)c1nnc(C23CC4CC(CC(C4)C2)C3)s1	inconclusive: 39.8 µM [inhibitor, single point]	
CC1CCN(S(=O)(=O)c2ccc3c(c2)c(=O)c(C(=O)NCc2ccco2)cn3C)CC1	inconclusive: 31.6 µM [activator, partial curve]	
Cc1cc(NC(=O)COC(=O)c2oc3c(ccc4ccccc43)c2C)no1	active: 20 µM	
CCOC(=O)c1cc(-c2ccc3c(c2)OCCO3)nc2c1c(C)nn2CCC#N	inconclusive: 31.6 µM [activator, single point]	
COc1cc(CNc2nc3ccccc3[nH]2)cc(OC)c1OC	inconclusive: 15.8 µM [inhibitor, partial curve]	
CCc1ccc2[nH]c3nc(SCC(=O)NNC(=O)c4ccc(C(C)(C)C)cc4)nnc3c2c1	active: 3.98 µM	
